In patent US20230250147A1 (Sanofi, published 2023):

B1: GLP-1RA/FGF21 Fc fusion protein SEQ ID NO: 148 (Fc fusion)
chain: HGEGTFTSDKSQLLEKRLAHLFIEWLIAGGPSSGKYSPKGGGGGGGSGGGGSGGGGSA[… human IgG4 Fc with changes …]GGGSGSAHPIPDSSPLLQFGGQVRQRYLYTDDACQTEAHLEIREDGTVGGAADQSPESLLQLKALKPGVIQILGVKTSRFLCQRPDGALYGSLHFDPEACSFRELLLEDGYNVYQSEAHGLPLHLPGCKSPHRDPAPRGPARFLPLPGLPPAPPEPPGILAPQPPDVGSSDPLSMVGSQGRSPSYAS
B2: GLP-1RA/FGF21 Fc fusion protein SEQ ID NO: 150 (Fc fusion)
chain: HGEGTFTSDKSQLLEKELAHLFIEWLIAGGHSKGRPPPKGGGGGGGSGGGGSGGGGSA[… human IgG4 Fc with changes …]GGGSGSAHPIPDSSPLLQFGGQVRQRYLYTDDACQTEAHLEIREDGTVGGAADQSPESLLQLKALKPGVIQILGVKTSRFLCQRPDGALYGSLHFDPEACSFRELLLEDGYNVYQSEAHGLPLHLPGCKSPHRDPAPRGPARFLPLPGLPPAPPEPPGILAPQPPDVGSSDPLSMVGSQGRSPSYAS
B3: GLP-1RA/FGF21 Fc fusion protein SEQ ID NO: 151 (Fc fusion)
chain: HGEGTFTSDKSQLLEKRLAHLFIEWLIAGGHSSGRYSPKGGGGGGGSGGGGSGGGGSA[… human IgG4 Fc with changes …]GGGSGSAHPIPDSSPLLQFGGQVRQRYLYTDDACQTEAHLEIREDGTVGGAADQSPESLLQLKALKPGVIQILGVKTSRFLCQRPDGALYGSLHFDPEACSFRELLLEDGYNVYQSEAHGLPLHLPGCKSPHRDPAPRGPARFLPLPGLPPAPPEPPGILAPQPPDVGSSDPLSMVGSQGRSPSYAS
B4: GLP-1RA/FGF21 Fc fusion protein SEQ ID NO: 152 (Fc fusion)
chain: HGEGTFTSDKSQLLEKRLAHLFIEWLLAGGHSSIRPPPKGGGGGGGSGGGGSGGGGSA[… human IgG4 Fc with changes …]GGGSGSAHPIPDSSPLLQFGGQVRQRYLYTDDACQTEAHLEIREDGTVGGAADQSPESLLQLKALKPGVIQILGVKTSRFLCQRPDGALYGSLHFDPEACSFRELLLEDGYNVYQSEAHGLPLHLPGCKSPHRDPAPRGPARFLPLPGLPPAPPEPPGILAPQPPDVGSSDPLSMVGSQGRSPSYAS
B5: GLP-1RA/FGF21 Fc fusion protein SEQ ID NO: 153 (Fc fusion)
chain: HGEGTFTSDKSQLLEKRLAHLFIEWLLAGGHSSIKPPPKGGGGGGGSGGGGSGGGGSA[… human IgG4 Fc with changes …]GGGSGSAHPIPDSSPLLQFGGQVRQRYLYTDDACQTEAHLEIREDGTVGGAADQSPESLLQLKALKPGVIQILGVKTSRFLCQRPDGALYGSLHFDPEACSFRELLLEDGYNVYQSEAHGLPLHLPGCKSPHRDPAPRGPARFLPLPGLPPAPPEPPGILAPQPPDVGSSDPLSMVGSQGRSPSYAS
B6: GLP-1RA/FGF21 Fc fusion protein SEQ ID NO: 155 (Fc fusion)
chain: HGEGTFTSDKSQLLEKRLAHLFIEWLIAGGHSKGRLPPKGGGGGGGSGGGGSGGGGSA[… human IgG4 Fc with changes …]GGGSGSAHPIPDSSPLLQFGGQVRQRYLYTDDACQTEAHLEIREDGTVGGAADQSPESLLQLKALKPGVIQILGVKTSRFLCQRPDGALYGSLHFDPEACSFRELLLEDGYNVYQSEAHGLPLHLPGCKSPHRDPAPRGPARFLPLPGLPPAPPEPPGILAPQPPDVGSSDPLSMVGSQGRSPSYAS
B7: GLP-1RA/FGF21 Fc fusion protein SEQ ID NO: 156 (Fc fusion)
chain: HGEGTFTSDKSQLLEKRLAHLFIEWLIAGGHSSGRLSPKGGGGGGGSGGGGSGGGGSA[… human IgG4 Fc with changes …]GGGSGSAHPIPDSSPLLQFGGQVRQRYLYTDDACQTEAHLEIREDGTVGGAADQSPESLLQLKALKPGVIQILGVKTSRFLCQRPDGALYGSLHFDPEACSFRELLLEDGYNVYQSEAHGLPLHLPGCKSPHRDPAPRGPARFLPLPGLPPAPPEPPGILAPQPPDVGSSDPLSMVGSQGRSPSYAS
B8: GLP-1RA/FGF21 Fc fusion protein SEQ ID NO: 157 (Fc fusion)
chain: HGEGTFTSDKSQLLEKRLAHLFIEWLIAGGPSKGRPPPKGGGGGGGSGGGGSGGGGSA[… human IgG4 Fc with changes …]GGGSGSAHPIPDSSPLLQFGGQVRQRYLYTDDACQTEAHLEIREDGTVGGAADQSPESLLQLKALKPGVIQILGVKTSRFLCQRPDGALYGSLHFDPEACSFRELLLEDGYNVYQSEAHGLPLHLPGCKSPHRDPAPRGPARFLPLPGLPPAPPEPPGILAPQPPDVGSSDPLSMVGSQGRSPSYAS
B9: GLP-1RA/FGF21 Fc fusion protein SEQ ID NO: 158 (Fc fusion)
chain: HGEGTFTSDKSQLLEKRLAHLFIEWLIKGGHSKGRPPPKGGGGGGGSGGGGSGGGGSA[… human IgG4 Fc with changes …]GGGSGSAHPIPDSSPLLQFGGQVRQRYLYTDDACQTEAHLEIREDGTVGGAADQSPESLLQLKALKPGVIQILGVKTSRFLCQRPDGALYGSLHFDPEACSFRELLLEDGYNVYQSEAHGLPLHLPGCKSPHRDPAPRGPARFLPLPGLPPAPPEPPGILAPQPPDVGSSDPLSMVGSQGRSPSYAS
B10: GLP-1RA/FGF21 Fc fusion protein SEQ ID NO: 161 (Fc fusion)
chain: HGEGTFTSDKSKQLAKRLVRLFIEWLIAGGHSSGKPPPKGGGGGGGSGGGGSGGGGSA[… human IgG4 Fc with changes …]GGGSGSAHPIPDSSPLLQFGGQVRQRYLYTDDACQTEAHLEIREDGTVGGAADQSPESLLQLKALKPGVIQILGVKTSRFLCQRPDGALYGSLHFDPEACSFRELLLEDGYNVYQSEAHGLPLHLPGCKSPHRDPAPRGPARFLPLPGLPPAPPEPPGILAPQPPDVGSSDPLSMVGSQGRSPSYAS
B11: GLP-1RA/FGF21 Fc fusion protein SEQ ID NO: 162 (Fc fusion)
chain: HGEGTFTSDKSKQLAKRLAHLFIEWLIAGGHSSGKPPPKGGGGGGGSGGGGSGGGGSA[… human IgG4 Fc with changes …]GGGSGSAHPIPDSSPLLQFGGQVRQRYLYTDDACQTEAHLEIREDGTVGGAADQSPESLLQLKALKPGVIQILGVKTSRFLCQRPDGALYGSLHFDPEACSFRELLLEDGYNVYQSEAHGLPLHLPGCKSPHRDPAPRGPARFLPLPGLPPAPPEPPGILAPQPPDVGSSDPLSMVGSQGRSPSYAS
B12: GLP-1RA/FGF21 Fc fusion protein SEQ ID NO: 163 (Fc fusion)
chain: HGEGTFTSDKSKQLAEEAVQLFIEWLLAGGPSKEIISGGGGGGGSGGGGSGGGGSA[… human IgG4 Fc with changes …]GGGSGSAHPIPDSSPLLQFGGQVRQRYLYTDDACQTEAHLEIREDGTVGGAADQSPESLLQLKALKPGVIQILGVKTSRFLCQRPDGALYGSLHFDPEACSFRELLLEDGYNVYQSEAHGLPLHLPGCKSPHRDPAPRGPARFLPLPGLPPAPPEPPGILAPQPPDVGSSDPLSMVGSQGRSPSYAS
B13: GLP-1RA/FGF21 Fc fusion protein SEQ ID NO: 165 (Fc fusion)
chain: HGEGTFTSDLSKQLAKRLVRLFIEWLIKGGHSSGKPPPKGGGGGGGSGGGGSGGGGSA[… human IgG4 Fc with changes …]GGGSGSAHPIPDSSPLLQFGGQVRQRYLYTDDACQTEAHLEIREDGTVGGAADQSPESLLQLKALKPGVIQILGVKTSRFLCQRPDGALYGSLHFDPEACSFRELLLEDGYNVYQSEAHGLPLHLPGCKSPHRDPAPRGPARFLPLPGLPPAPPEPPGILAPQPPDVGSSDPLSMVGSQGRSPSYAS
B14: GLP-1RA/FGF21 Fc fusion protein SEQ ID NO: 166 (Fc fusion)
chain: HGEGTFTSDKSKQLAKRLVREFIEWLIKGGHSSGKPPPKGGGGGGGSGGGGSGGGGSA[… human IgG4 Fc with changes …]GGGSGSAHPIPDSSPLLQFGGQVRQRYLYTDDACQTEAHLEIREDGTVGGAADQSPESLLQLKALKPGVIQILGVKTSRFLCQRPDGALYGSLHFDPEACSFRELLLEDGYNVYQSEAHGLPLHLPGCKSPHRDPAPRGPARFLPLPGLPPAPPEPPGILAPQPPDVGSSDPLSMVGSQGRSPSYAS
B15: GLP-1RA/FGF21 Fc fusion protein SEQ ID NO: 167 (Fc fusion)
chain: HGEGTFTSDKSKQLAKRLVRHFIEWLIKGGHSSGKPPPKGGGGGGGSGGGGSGGGGSA[… human IgG4 Fc with changes …]GGGSGSAHPIPDSSPLLQFGGQVRQRYLYTDDACQTEAHLEIREDGTVGGAADQSPESLLQLKALKPGVIQILGVKTSRFLCQRPDGALYGSLHFDPEACSFRELLLEDGYNVYQSEAHGLPLHLPGCKSPHRDPAPRGPARFLPLPGLPPAPPEPPGILAPQPPDVGSSDPLSMVGSQGRSPSYAS
B16: GLP-1RA/FGF21 Fc fusion protein SEQ ID NO: 168 (Fc fusion)
chain: HGEGTFTSDLSKQLAKRLVREFIEWLIKGGHSSGKPPPKGGGGGGGSGGGGSGGGGSA[… human IgG4 Fc with changes …]GGGSGSAHPIPDSSPLLQFGGQVRQRYLYTDDACQTEAHLEIREDGTVGGAADQSPESLLQLKALKPGVIQILGVKTSRFLCQRPDGALYGSLHFDPEACSFRELLLEDGYNVYQSEAHGLPLHLPGCKSPHRDPAPRGPARFLPLPGLPPAPPEPPGILAPQPPDVGSSDPLSMVGSQGRSPSYAS
B17: GLP-1RA/FGF21 Fc fusion protein SEQ ID NO: 169 (Fc fusion)
chain: HGEGTFTSDLSKQLAKRLVREFIEWLIEGGHSSGKPPPKGGGGGGGSGGGGSGGGGSA[… human IgG4 Fc with changes …]GGGSGSAHPIPDSSPLLQFGGQVRQRYLYTDDACQTEAHLEIREDGTVGGAADQSPESLLQLKALKPGVIQILGVKTSRFLCQRPDGALYGSLHFDPEACSFRELLLEDGYNVYQSEAHGLPLHLPGCKSPHRDPAPRGPARFLPLPGLPPAPPEPPGILAPQPPDVGSSDPLSMVGSQGRSPSYAS
B18: GLP-1RA/FGF21 Fc fusion protein SEQ ID NO: 170 (Fc fusion)
chain: HGEGTFTSDKSKQLAKRLVREFIEWLIEGGHSSGKPPPKGGGGGGGSGGGGSGGGGSA[… human IgG4 Fc with changes …]GGGSGSAHPIPDSSPLLQFGGQVRQRYLYTDDACQTEAHLEIREDGTVGGAADQSPESLLQLKALKPGVIQILGVKTSRFLCQRPDGALYGSLHFDPEACSFRELLLEDGYNVYQSEAHGLPLHLPGCKSPHRDPAPRGPARFLPLPGLPPAPPEPPGILAPQPPDVGSSDPLSMVGSQGRSPSYAS
B19: GLP-1RA/FGF21 Fc fusion protein SEQ ID NO: 172 (Fc fusion)
chain: HGEGTFTSDKSKQLAKRLVRLFIEWLIKGGHSSGKPPPSGGGGGGGSGGGGSGGGGSA[… human IgG4 Fc with changes …]GGGSGSAHPIPDSSPLLQFGGQVRQRYLYTDDACQTEAHLEIREDGTVGGAADQSPESLLQLKALKPGVIQILGVKTSRFLCQRPDGALYGSLHFDPEACSFRELLLEDGYNVYQSEAHGLPLHLPGCKSPHRDPAPRGPARFLPLPGLPPAPPEPPGILAPQPPDVGSSDPLSMVGSQGRSPSYAS

molecular target: human glucagon-like peptide-1 (GLP-1) receptor (human, UniProt P43220 24-463); test: cell-based or functional assay

Row | Binder | HTRF cAMP EC50
1 | B1 | 0.00848 nM
2 | B2 | 0.0115 nM
3 | B3 | 0.00866 nM
4 | B4 | 0.00943 nM
5 | B5 | 0.00998 nM
6 | B6 | 0.011 nM
7 | B7 | 0.00922 nM
8 | B8 | 0.0121 nM
9 | B9 | 0.0087 nM
10 | B10 | 0.252 nM
11 | B11 | 0.27 nM
12 | B12 | 0.374 nM
13 | B13 | 0.173 nM
14 | B14 | 0.16 nM
15 | B15 | 0.309 nM
16 | B16 | 0.0461 nM
17 | B17 | 0.0596 nM
18 | B18 | 0.234 nM
19 | B19 | 0.254 nM
